Two molecules from article PMC10516938, “Conformational dynamics of cohesin/Scc2 loading complex are regulated by Smc3 acetylation and ATP binding” (Nature Communications, 2023) can be followed below.

Results are given in words; binding and its absence hold for the method and conditions named. Binding seen in cells or lysates may run through a third protein. Some entries that bind do so weakly or less than the wild type.

For test [1], the target named is T1, Smc3 S72C (S. cerevisiae) (UniProt P47037).
T1 sequence: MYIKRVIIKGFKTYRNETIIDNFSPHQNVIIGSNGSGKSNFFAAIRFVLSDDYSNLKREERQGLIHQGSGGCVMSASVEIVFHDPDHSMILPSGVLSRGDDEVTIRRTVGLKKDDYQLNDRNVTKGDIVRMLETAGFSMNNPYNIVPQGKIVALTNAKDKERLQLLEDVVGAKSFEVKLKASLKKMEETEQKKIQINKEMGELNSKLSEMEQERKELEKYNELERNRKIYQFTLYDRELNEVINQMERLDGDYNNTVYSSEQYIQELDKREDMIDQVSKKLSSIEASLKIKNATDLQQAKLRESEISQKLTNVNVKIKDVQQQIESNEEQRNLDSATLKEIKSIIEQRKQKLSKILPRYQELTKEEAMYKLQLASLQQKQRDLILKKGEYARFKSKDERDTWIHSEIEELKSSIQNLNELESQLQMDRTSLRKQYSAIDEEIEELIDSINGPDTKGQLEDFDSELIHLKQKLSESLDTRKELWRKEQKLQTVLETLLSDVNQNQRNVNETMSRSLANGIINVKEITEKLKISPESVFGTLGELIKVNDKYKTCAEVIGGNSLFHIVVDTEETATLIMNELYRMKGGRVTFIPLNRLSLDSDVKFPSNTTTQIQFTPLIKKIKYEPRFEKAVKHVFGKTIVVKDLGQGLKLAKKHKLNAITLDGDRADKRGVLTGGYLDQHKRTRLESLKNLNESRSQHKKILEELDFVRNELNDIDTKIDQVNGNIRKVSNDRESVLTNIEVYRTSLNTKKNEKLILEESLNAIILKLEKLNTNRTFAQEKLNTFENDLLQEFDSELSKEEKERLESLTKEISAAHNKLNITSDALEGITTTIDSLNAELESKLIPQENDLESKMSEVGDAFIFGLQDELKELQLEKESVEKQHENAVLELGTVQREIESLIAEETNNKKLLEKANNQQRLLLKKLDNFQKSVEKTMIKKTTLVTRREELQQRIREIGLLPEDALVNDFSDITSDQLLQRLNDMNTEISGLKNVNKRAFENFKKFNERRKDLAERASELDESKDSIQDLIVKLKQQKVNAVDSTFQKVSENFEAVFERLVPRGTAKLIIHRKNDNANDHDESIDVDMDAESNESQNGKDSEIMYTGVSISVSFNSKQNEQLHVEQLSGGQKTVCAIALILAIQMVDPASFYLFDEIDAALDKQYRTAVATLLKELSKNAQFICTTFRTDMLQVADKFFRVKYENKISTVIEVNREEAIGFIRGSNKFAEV
The test is described as follows: cross-linking; in vivo BMOE cross-link of cysteine pairs in yeast cells arrested in late G1 by non-degradable Sic1(9m); Scc1-PK immunoprecipitated, western blot, band intensities quantified.

Test [2] concerns the target T2, Smc1 E1102C E1158Q (S. cerevisiae) (UniProt P32908).
T2 sequence: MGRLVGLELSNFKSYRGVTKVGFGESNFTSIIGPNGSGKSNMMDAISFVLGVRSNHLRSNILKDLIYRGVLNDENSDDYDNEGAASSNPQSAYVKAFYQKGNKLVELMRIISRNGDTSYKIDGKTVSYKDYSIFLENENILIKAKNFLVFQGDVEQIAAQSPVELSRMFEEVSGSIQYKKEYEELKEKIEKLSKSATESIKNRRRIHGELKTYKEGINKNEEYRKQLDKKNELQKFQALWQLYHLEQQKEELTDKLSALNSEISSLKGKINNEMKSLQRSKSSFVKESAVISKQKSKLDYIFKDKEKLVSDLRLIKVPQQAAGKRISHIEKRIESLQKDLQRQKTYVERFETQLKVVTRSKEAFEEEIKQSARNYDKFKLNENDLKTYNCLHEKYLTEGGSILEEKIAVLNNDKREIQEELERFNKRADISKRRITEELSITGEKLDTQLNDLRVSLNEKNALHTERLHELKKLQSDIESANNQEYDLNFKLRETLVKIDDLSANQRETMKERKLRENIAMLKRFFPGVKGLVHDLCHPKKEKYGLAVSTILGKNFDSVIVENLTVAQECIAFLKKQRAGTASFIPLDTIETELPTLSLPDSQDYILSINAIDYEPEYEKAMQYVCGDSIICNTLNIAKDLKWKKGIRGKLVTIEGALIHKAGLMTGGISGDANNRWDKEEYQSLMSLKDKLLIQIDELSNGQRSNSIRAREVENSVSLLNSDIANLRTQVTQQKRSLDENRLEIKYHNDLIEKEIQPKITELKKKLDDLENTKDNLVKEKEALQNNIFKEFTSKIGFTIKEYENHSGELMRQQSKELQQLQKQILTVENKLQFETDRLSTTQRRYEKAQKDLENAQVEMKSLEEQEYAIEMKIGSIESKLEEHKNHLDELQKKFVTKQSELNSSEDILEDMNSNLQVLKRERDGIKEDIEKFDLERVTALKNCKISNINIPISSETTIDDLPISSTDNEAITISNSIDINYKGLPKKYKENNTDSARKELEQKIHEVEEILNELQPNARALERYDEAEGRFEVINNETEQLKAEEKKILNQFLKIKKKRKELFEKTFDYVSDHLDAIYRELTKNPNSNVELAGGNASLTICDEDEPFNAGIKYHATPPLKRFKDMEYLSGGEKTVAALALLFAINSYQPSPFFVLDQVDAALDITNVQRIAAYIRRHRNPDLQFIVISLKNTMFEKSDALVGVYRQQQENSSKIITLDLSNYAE
Described as above.

B1: Scc2 E819C (natural protein, S. cerevisiae, UniProt Q04002 1-1493, looked up)
chain: MSYPGKDKNIPGRIIEALEDLPLSYLVPKDGLAALVNAPMRVSLPFDKTIFTSADDGRDVNINVLGTANSTTSSIKNEAEKERLVFKRPSNFTSSANSVDYVPTNFLEGLSPLAQSVLSTHKGLNDSINIEKKSEIVSRPEAKHKLESVTSNAGNLSFNDNSSNKKTKTSTGVTMTQANLAEQYLNDLKNILDIVGFDQNSAEIGNIEYWLQLPNKKFVLTTNCLTKLQMTIKNITDNPQLSNSIEITWLLRLLDVMVCNIKFSKSSLKMGLDDSMLRYIALLSTIVLFNIFLLGKNDSNLHRESYIMEPVNFLSDLIESLKILTIEYGSLKIEFDTFQEALELLPKYIRNGPFLDDNVTAKLVYIFSDLLMNNDIEATTNIQFQSFWDNVKRISSDILVSLFGSFDQQRGFIIEELLSHIEKLPTKRIQKKLRKVGNQNIYITDFTFTLMSMLENINCYSFCNQMKDIAPENIDLLKNEYKKQEEFLFNIVEHINDTILERFFKNPSALRYVIDNFVQDLLLLISSPQWPVTEKILSSLLKRLLSVYSPSMQVSANIETICLQLIGNIGSTIFDIKCSTRDHEDNNLIKMINYPETLPHFFKSFEECIAYNETIKCRRSATRFLWNLRLGTILILEEYTKDAKEQIITVDNELKKILEQIKDGGLGPELENREADFSTIKLDYFSILHAFELLNLYDPYLKLILSLLAKDKIKLRSTAIKCLSMLASKDKVILSNPMVKETIHRRLNDSSASVKDAILDLVSINSSYFEFYQQINNNYNDDSIMVRKHVLRINEKMYDETNDIVTKVYVIARILMKICDEEDNIIDMARLILLNRWILKVHEVLDQPEKLKEISSSVLLVMSRVAIMNEKCSQLFDLFLNFYLLNKEAHSKEAYDKITHVLTILTDFLVQKIVELNSDDTNEKNSIVDKQNFLNLLAKFADSTVSFLTKDHITALYPYMVSDEKSDFHYYILQVFRCTFEKLANFKQKFLYDLETTLLSRLPKMNVREIDEAMPLIWSVATHRHDTARVAKACSSCLSHLHPYINKANNEEAAIVVDGKLQRLIYLSTGFARFCFPKPSNDKIAFLQEGETLYEHITKCLLVLSKDKITHVIRRVAVKNLTKLCGNHPKLFNSRHVLHLLDKEFQSDQLDIKLVILESLYDLFLLEERKSVRNTGVNSTLSSNSILKKKLLKTNRVEFANDGVCSALATRFLDNILQLCLLRDLKNSLVAIRLLKLILKFGYTNPSHSIPTVIALFASTSQYIRHVAYELLEDLFEKYETLVFSSLSRGVTKAIHYSIHTDEKYYYKHDHFLSLLEKLCGTGKKNGPKFFKVLKRIMQSYLDDITDLTSTNSSVQKSIFVLCTNISNITFVSQYDLVSLLKTIDLTTDRLKEVIMDEIGDNVSSLSVSEEKLSGIILIQLSLQDLGTYLLHLYGLRDDVLLLDIVEESELKNKQLPAKKPDISKFSAQLENIEQYSSNGKLLTYFRKHVKDT
notes: Scc2, S. cerevisiae; source: S. cerevisiae W303, in vivo, whole-cell extract
As for B1, in test [1], the binding result is given as “binds”.

B2: Scc2 T1281C (protein, UniProt Q04002 1-1493)
chain: MSYPGKDKNIPGRIIEALEDLPLSYLVPKDGLAALVNAPMRVSLPFDKTIFTSADDGRDVNINVLGTANSTTSSIKNEAEKERLVFKRPSNFTSSANSVDYVPTNFLEGLSPLAQSVLSTHKGLNDSINIEKKSEIVSRPEAKHKLESVTSNAGNLSFNDNSSNKKTKTSTGVTMTQANLAEQYLNDLKNILDIVGFDQNSAEIGNIEYWLQLPNKKFVLTTNCLTKLQMTIKNITDNPQLSNSIEITWLLRLLDVMVCNIKFSKSSLKMGLDDSMLRYIALLSTIVLFNIFLLGKNDSNLHRESYIMEPVNFLSDLIESLKILTIEYGSLKIEFDTFQEALELLPKYIRNGPFLDDNVTAKLVYIFSDLLMNNDIEATTNIQFQSFWDNVKRISSDILVSLFGSFDQQRGFIIEELLSHIEKLPTKRIQKKLRKVGNQNIYITDFTFTLMSMLENINCYSFCNQMKDIAPENIDLLKNEYKKQEEFLFNIVEHINDTILERFFKNPSALRYVIDNFVQDLLLLISSPQWPVTEKILSSLLKRLLSVYSPSMQVSANIETICLQLIGNIGSTIFDIKCSTRDHEDNNLIKMINYPETLPHFFKSFEECIAYNETIKCRRSATRFLWNLRLGTILILEEYTKDAKEQIITVDNELKKILEQIKDGGLGPELENREADFSTIKLDYFSILHAFELLNLYDPYLKLILSLLAKDKIKLRSTAIKCLSMLASKDKVILSNPMVKETIHRRLNDSSASVKDAILDLVSINSSYFEFYQQINNNYNDDSIMVRKHVLRINEKMYDETNDIVTKVYVIARILMKIEDEEDNIIDMARLILLNRWILKVHEVLDQPEKLKEISSSVLLVMSRVAIMNEKCSQLFDLFLNFYLLNKEAHSKEAYDKITHVLTILTDFLVQKIVELNSDDTNEKNSIVDKQNFLNLLAKFADSTVSFLTKDHITALYPYMVSDEKSDFHYYILQVFRCTFEKLANFKQKFLYDLETTLLSRLPKMNVREIDEAMPLIWSVATHRHDTARVAKACSSCLSHLHPYINKANNEEAAIVVDGKLQRLIYLSTGFARFCFPKPSNDKIAFLQEGETLYEHITKCLLVLSKDKITHVIRRVAVKNLTKLCGNHPKLFNSRHVLHLLDKEFQSDQLDIKLVILESLYDLFLLEERKSVRNTGVNSTLSSNSILKKKLLKTNRVEFANDGVCSALATRFLDNILQLCLLRDLKNSLVAIRLLKLILKFGYTNPSHSIPTVIALFASTSQYIRHVAYELLEDLFEKYECLVFSSLSRGVTKAIHYSIHTDEKYYYKHDHFLSLLEKLCGTGKKNGPKFFKVLKRIMQSYLDDITDLTSTNSSVQKSIFVLCTNISNITFVSQYDLVSLLKTIDLTTDRLKEVIMDEIGDNVSSLSVSEEKLSGIILIQLSLQDLGTYLLHLYGLRDDVLLLDIVEESELKNKQLPAKKPDISKFSAQLENIEQYSSNGKLLTYFRKHVKDT
Turning to B2, in test [2], the binding entry is “binds”.
